# Measured values as given in the supplement of paper PMC10338343.
# ± gives the standard deviation. Only a part is listed here, and it is no random draw.
# Tested on: MIWI (PIWIL1) piRISC loaded with L1MC piRNA (30 nt)
# Assay: pre-steady-state target cleavage rate (min^-1); MIWI and MILI are mouse PIWI proteins and EfPiwi is from a freshwater sponge; tags in brackets are library labels; higher = faster piRNA-guided slicing of the target
# Details: guide: L1MC piRNA 5'p-UAACUAAAUACUAUGCAAGCUGUAGGUCCU
# Procedure, shortened: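 In Cleave-'n-Seq, a transcribed, DNA-blocked target RNA library (0.1 nM) was combined with 1 nM active affinity-purified piRISC bearing one synthetic guide, with or without 500 nM GTSF1 partner protein. Reactions ran in HEPES–potassium acetate buffer at 33 °C for 0–8 or 0–960 min. Uncleaved targets were sequenced and normalised to depth and to weakly complementary targets, three trials were pooled, and k3 was capped at 0.0001 min^-1. The pre-steady-state cleavage rate was obtained by fitting a burst-and-steady-state model.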
# [1] = auxiliary factor: 500 nM mouse GTSF1
# [2] = auxiliary factor: none (no GTSF1)
Sequence,pre-steady-state target cleavage rate [1],pre-steady-state target cleavage rate [2]
UCCACCAUGAGCUUGCAUAGUAUUUAGAAA,0.298 ± 0.035,0.00532 ± 0.0017
UCGACCUACAGCUAGCAUAGUAUUAAGUUA,0.945 ± 0.056,0.00724 ± 0.0022
UCCACCUACAGCUUGCAAAGUAUUUAGAUA,0.372 ± 0.053,0.011 ± 0.0024
AGGACCAACACCUUGCAUAGUAUUUAGUUA,1.17 ± 0.036,0.0708 ± 0.011
UCCACCUAUAGCUUGCAUAGUAUUUAGUUA,0.689 ± 0.026,0.0407 ± 0.0075
UCCUGGAUCUCCUUGCAUAGUAUUUAGUUA,0.474 ± 0.044,0.0111 ± 0.0025
UGGACCAACAGCUUGCAUAGUAUUUAGAUA,0.428 ± 0.022,0.0582 ± 0.014
UCCUGGUAUCAGCUUGCAUAGUAUUUAGUUA,0.546 ± 0.06,0.062 ± 0.014
AGGACCUACAGCUUGCUAGUAUUUAGUUA,0.179 ± 0.041,0.00501 ± 0.0024
UCCUGGAUCUGCUUGCAUAGUAUUUUGUUA,0.29 ± 0.024,0.0178 ± 0.0041
UCGACCUACAGCUUGCAUAGUAAUUUGUUA,0.528 ± 0.035,0.0166 ± 0.0049
UCCUGGAUCUGCUUGCAUAGUAUUUAGUUA,0.755 ± 0.036,0.0225 ± 0.0057
